Measurements: PMC4336329 (PLoS ONE, 2015)
About 2,200 (0.71%) of roughly 310,000 compounds showed an effect of 50% or more. Effects have a minus sign here. This is one part of the list.

What follows are molecules tested against human ether-à-go-go-related gene (hERG) potassium channel (human, UniProt Q12809) (assay: primary screen, population patch clamp on CHO cells stably expressing hERG).
Chain of human ether-à-go-go-related gene (hERG) potassium channel (Q12809 whole entry, looked up): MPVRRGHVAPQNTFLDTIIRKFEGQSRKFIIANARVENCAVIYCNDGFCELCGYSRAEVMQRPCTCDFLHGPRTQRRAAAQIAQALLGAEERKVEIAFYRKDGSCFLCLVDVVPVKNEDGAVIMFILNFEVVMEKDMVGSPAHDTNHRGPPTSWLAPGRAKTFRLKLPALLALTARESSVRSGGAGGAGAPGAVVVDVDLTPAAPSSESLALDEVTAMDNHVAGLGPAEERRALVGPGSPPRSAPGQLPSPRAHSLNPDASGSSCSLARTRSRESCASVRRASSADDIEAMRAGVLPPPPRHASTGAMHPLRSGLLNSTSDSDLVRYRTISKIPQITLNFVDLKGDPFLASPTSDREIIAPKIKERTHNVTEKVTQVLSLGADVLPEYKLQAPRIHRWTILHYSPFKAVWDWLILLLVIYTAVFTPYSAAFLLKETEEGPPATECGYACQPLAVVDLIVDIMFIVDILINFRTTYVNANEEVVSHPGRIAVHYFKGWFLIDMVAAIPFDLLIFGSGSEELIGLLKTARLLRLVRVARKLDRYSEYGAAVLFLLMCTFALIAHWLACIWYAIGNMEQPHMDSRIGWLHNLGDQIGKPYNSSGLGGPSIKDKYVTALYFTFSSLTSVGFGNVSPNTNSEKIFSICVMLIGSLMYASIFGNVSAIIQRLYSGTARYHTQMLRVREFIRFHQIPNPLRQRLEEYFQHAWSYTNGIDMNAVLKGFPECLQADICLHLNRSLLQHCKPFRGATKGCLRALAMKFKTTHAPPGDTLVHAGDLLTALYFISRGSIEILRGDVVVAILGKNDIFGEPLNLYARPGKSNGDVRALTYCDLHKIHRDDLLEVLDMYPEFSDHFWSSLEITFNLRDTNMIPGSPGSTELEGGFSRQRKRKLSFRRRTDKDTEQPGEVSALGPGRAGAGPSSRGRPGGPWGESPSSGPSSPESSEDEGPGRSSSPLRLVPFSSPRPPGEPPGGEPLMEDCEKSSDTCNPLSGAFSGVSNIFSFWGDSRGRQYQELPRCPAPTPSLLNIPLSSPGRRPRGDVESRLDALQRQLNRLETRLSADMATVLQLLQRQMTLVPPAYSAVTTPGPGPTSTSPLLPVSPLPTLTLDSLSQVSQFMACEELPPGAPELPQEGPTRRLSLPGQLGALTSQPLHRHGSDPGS

First: COc1ccc(C2CC(c3ccccc3)=NN2S(=O)(=O)c2ccccc2)c(OC)c1 (centres unmarked)
Second: COc1ccc(OC)c(/C=N/NC(=O)c2cc[n+](CC(=O)c3ccccc3)cc2)c1.[Br-]
The “hERG current change (%, negative = inhibition) at 1uM” value of the first is higher: 13% for the first, 2.95% for the second.

First: CC(=O)N/C(=N\OCc1ccc(Br)cc1)c1nonc1NC(C)=O
Second: Cc1ccc(CONC(=O)c2ccc(Cl)cc2)cc1
The “hERG current change (%, negative = inhibition) at 1uM” value of the first is higher: 12.6% for the first, 12.5% for the second.

Going from CCCn1c(N)c(C(=O)CSc2nnnn2-c2ccc(O)cc2)c(=O)n(C)c1=O to CCCn1c(N)c(C(=O)CSc2nc3ncc(Cl)cc3[nH]2)c(=O)[nH]c1=O, the “hERG current change (%, negative = inhibition) at 1uM” value falls from 7.35% to 6.85%.

Compared with O=C(CCc1ccccc1O)NC1CCCc2ccccc21 (centres unmarked), CCCN1CCN(C(=O)c2ccccc2-c2nc3ccccc3s2)CC1 is lower in “hERG current change (%, negative = inhibition) at 1uM” value: -3.48% for the first, -6.92% for the second.

Compared with O=C(C[n+]1cc(-c2ccccc2)n2c1CCC2)Nc1nc(-c2ccc(F)cc2)cs1.[Cl-], O=C(Nc1ccc(-c2cccc(F)c2)cc1)C1CCCN(Cc2ccccn2)C1 (centres unmarked) is lower in “hERG current change (%, negative = inhibition) at 1uM” value: 4.85% for the first, 3.56% for the second.

Compared with COc1ccc(C(=O)OCC(=O)c2cc(OC)ccc2OC)c(OC)c1, COCCNC(=O)C1CCC(=O)N(c2ccc(OC)cc2)C1c1ccc(OC)c(OC)c1 (centres unmarked) is lower in “hERG current change (%, negative = inhibition) at 1uM” value: 13.3% for the first, 7.35% for the second.

Going from CC(C(=O)Nc1ccc(S(=O)(=O)N2CCOCC2)cc1)N1CCN(c2ccccn2)CC1 (centres unmarked) to CS(=O)(=O)N1CCc2cc(C(=O)N3CCN(c4ccc(F)cc4)CC3)ccc21, the “hERG current change (%, negative = inhibition) at 1uM” value rises from 8.48% to 9.26%.

Compared with Cc1ccc(-c2ccc(S(=O)(=O)NCC3CCCO3)cc2)cc1 (centres unmarked), CCc1ccc(S(=O)(=O)Nc2ccc(-c3ccc4nnc(C)n4n3)cc2)s1 is lower in “hERG current change (%, negative = inhibition) at 1uM” value: 16.2% for the first, 10.5% for the second.

Compared with Cc1cc(=O)n2nc(N3CCCC3C(=O)Nc3cccc(F)c3)sc2n1 (centres unmarked), O=C(Nc1ccc2oc(-c3ccccc3)nc2c1)C1CCCO1 (centres unmarked) is higher in “hERG current change (%, negative = inhibition) at 1uM” value: 2.56% for the first, 11.4% for the second.

Compared with COc1cccc(CNC(=O)COC(=O)C2CCN(c3ccc(C(F)(F)F)cn3)CC2)c1, CCc1ccc(CN2CCC(Oc3ccc(C(=O)NCc4ccccn4)cc3)CC2)o1 is higher in “hERG current change (%, negative = inhibition) at 1uM” value: -4.59% for the first, 12.7% for the second.

Compared with Nc1c(C(=O)Nc2ccc3c(c2)OCCO3)nnn1Cc1ccc(F)cc1, Cc1ccc(N2CC(C(=O)NCc3ccc4c(c3)OCO4)CC2=O)cc1C (centres unmarked) is lower in “hERG current change (%, negative = inhibition) at 1uM” value: 8.31% for the first, 6.91% for the second.

First: O=C(Nc1ccccc1C(=O)N1CCN(c2cccc(Cl)c2)CC1)C1=CSCCO1
Second: NC(=O)c1ccccc1NC(=O)Nc1cccc(Cl)c1Cl
The “hERG current change (%, negative = inhibition) at 1uM” value of the first is higher: 12.4% for the first, 11.4% for the second.

Going from O=C(O)c1cccc(Cn2c(Cl)c(/C=N/Nc3ccccc3)sc2=O)c1 to Cc1occc1C(=O)Nc1cccc(C(=O)NCc2ccccc2)c1, the “hERG current change (%, negative = inhibition) at 1uM” value falls from 20.2% to -8.43%.

First: Cc1cccc(C)c1NC(=S)N/N=C1\CC2CC=CC12 (centres unmarked)
Second: Cc1ccc(NC(=O)C(=O)NCCc2c[nH]c3ccccc23)cc1C
The “hERG current change (%, negative = inhibition) at 1uM” value of the first is lower: 2.82% for the first, 8.54% for the second.

First: O=C1NCCSC1c1ccccc1 (centres unmarked)
Second: O=C(CC1C(=O)NCCN1Cc1ccc(-c2ccccc2)cc1)NCCCn1ccnc1 (centres unmarked)
The “hERG current change (%, negative = inhibition) at 1uM” value of the first is higher: 15.7% for the first, 8.39% for the second.

First: COc1ccccc1NC(=O)CCSc1nc(C)cs1
Second: COC(=O)CSc1nc2sccc2c(=O)n1-c1ccccc1
The “hERG current change (%, negative = inhibition) at 1uM” value of the first is higher: 17.9% for the first, 5.57% for the second.

Compared with CCCCC(=O)NS(=O)(=O)c1ccc(NS(C)(=O)=O)cc1, CCNS(=O)(=O)c1ccc(NC(=O)c2cc(C(F)(F)F)nn2C)cc1 is lower in “hERG current change (%, negative = inhibition) at 1uM” value: 6.85% for the first, 0.646% for the second.

First: CC(=O)c1ccn(S(=O)(=O)c2ccc(Cl)cc2)c1
Second: O=C(Nc1ccc(Cl)cn1)c1cccc(F)c1
The “hERG current change (%, negative = inhibition) at 1uM” value of the first is higher: 12.6% for the first, 3.54% for the second.

First: CC(=O)c1c(C)[nH]c(C(=O)NC(C)c2ccccc2)c1C (centres unmarked)
Second: CC(=O)C(Sc1nc(N(C)C)nc(N(C)C)n1)C(=O)Nc1ccccc1 (centres unmarked)
The “hERG current change (%, negative = inhibition) at 1uM” value of the first is lower: 7.56% for the first, 12.8% for the second.

Compared with C/C(CC1(O)/C(=N/O)CCc2nonc21)=N\O (centres unmarked), CC(=O)c1ccc(Nc2cnn(C34CC5CC(CC(CC(=O)O)(C5)C3)C4)c(=O)c2Cl)cc1 is higher in “hERG current change (%, negative = inhibition) at 1uM” value: 13.3% for the first, 15.3% for the second.

First: COc1cccc2cc(C(C)N(CCCN3CCOCC3)C(=S)Nc3cc(C)ccc3C)oc12 (centres unmarked)
Second: COc1ccc(CCNC(=O)C(=O)NCCCN2CCOCC2)cc1
The “hERG current change (%, negative = inhibition) at 1uM” value of the first is lower: 13% for the first, 14% for the second.

Compared with O=S(=O)(c1ccc(Cl)nc1)N1CCN(Cc2ccc3c(c2)OCO3)CC1, O=C(Nc1ccc2c(c1)OCO2)N1CCN(c2ncc(C(F)(F)F)cc2Cl)CC1 is lower in “hERG current change (%, negative = inhibition) at 1uM” value: 15% for the first, 7.69% for the second.

Going from COc1ccccc1OCCn1cc(C=O)c2ccccc21 to Cc1ccccc1OC(=O)Cn1c(C(F)(F)F)nc2ccccc21, the “hERG current change (%, negative = inhibition) at 1uM” value falls from 12.3% to 10.3%.

First: Cc1noc(C)c1CSc1nnc2scc(-c3ccccc3)n12
Second: CCCn1c(SCC(=O)NCCc2ccccc2)nnc1-c1ccccn1
The “hERG current change (%, negative = inhibition) at 1uM” value of the first is lower: -6.47% for the first, 1.51% for the second.

First: COc1ccnc(N=CNOCc2ccc(F)cc2Cl)c1C#N
Second: N#Cc1c(C(F)(F)F)cc(-c2ccccc2Cl)[nH]c1=O
The “hERG current change (%, negative = inhibition) at 1uM” value of the first is higher: 11.8% for the first, -2.5% for the second.

First: COc1cc(CNc2ccc3[nH]c(=O)[nH]c3c2)cc(Cl)c1OCC(=O)NC(C)(C)C
Second: CCOCC(=O)Nc1cc(C(=O)Nc2cc(C)cc(C)c2)ccc1Cl
The “hERG current change (%, negative = inhibition) at 1uM” value of the first is lower: 9.24% for the first, 14.3% for the second.

Going from c1ccc(C(c2ccccc2)c2noc(CN3CCN(CC4CC4)CC3)n2)cc1 to CC(OC(=O)c1ccccc1N1C(=O)C2C3CCC(C3)C2C1=O)C(=O)c1ccccc1 (centres unmarked), the “hERG current change (%, negative = inhibition) at 1uM” value rises from -27.1% to 10.2%.

First: O=C(O)c1cc2nc(C3CC3)cc(C(F)(F)F)n2n1
Second: Cc1cc(C)nc(SCc2nnc(SCC(=O)Nc3cc(C(F)(F)F)ccc3Cl)o2)n1
The “hERG current change (%, negative = inhibition) at 1uM” value of the first is higher: 12% for the first, -0.0846% for the second.

Going from CCOC(=O)c1ccc(S(=O)(=O)N2CCN(CC(O)COc3ccc(C#N)cc3)CC2)cc1.O=C(O)C(=O)O (centres unmarked) to COC(=O)C1=C(c2ccc(S(C)(=O)=O)cc2)C[C@@H]2CC[C@H]1N2C(=O)N1CCOCC1, the “hERG current change (%, negative = inhibition) at 1uM” value rises from -10.8% to 11.6%.

Going from O=C(Oc1ccc(Br)cc1)C1CC(=O)N(c2ccc(F)cc2)C1 (centres unmarked) to COc1ccc(C(=O)Nc2ccc(-c3n[nH]c(=S)o3)cc2)cc1, the “hERG current change (%, negative = inhibition) at 1uM” value rises from 12.7% to 16.9%.

First: Cc1cccc(C(=O)N[C@H](C(=O)Nc2ccc(S(=O)(=O)NC3=NCCCCC3)cc2)C(C)C)c1
Second: Cc1cccc(NS(=O)(=O)c2cc(C(=O)N3CCN(C)CC3)ccc2C)c1
The “hERG current change (%, negative = inhibition) at 1uM” value of the first is higher: 10.7% for the first, -4.91% for the second.

Compared with O=C1c2cccnc2C(=O)N1Cc1ccc(S(=O)(=O)NCc2ccco2)cc1, O=C1/C(=C/c2ccc(F)cc2)SC(=S)N1NS(=O)(=O)c1ccccc1 is higher in “hERG current change (%, negative = inhibition) at 1uM” value: 12.9% for the first, 13% for the second.

Compared with Cc1cc(-c2ccc(/C=N/n3cnnc3)o2)ccc1Cl, O=C(Nn1cnnc1)c1ccc(Cl)c([N+](=O)[O-])c1 is lower in “hERG current change (%, negative = inhibition) at 1uM” value: 9.22% for the first, 1.64% for the second.

Going from CC(=O)c1cnn(-c2ccc(Cl)c(Cl)c2Cl)c1C to COC(=O)C1=C(C)N(C)C(=O)NC1c1ccc(O)c(Cl)c1 (centres unmarked), the “hERG current change (%, negative = inhibition) at 1uM” value falls from 6.24% to -9.59%.

Going from CC1CCN(Cc2nc3c(c(=O)n(C)c(=O)n3C)n2CCCc2ccccc2)CC1 to COc1cc(CCC(=O)N2CCN(c3ccccc3)CC2)cc(OC)c1OC, the “hERG current change (%, negative = inhibition) at 1uM” value falls from 8.43% to -0.0932%.

First: Cc1ccc(C2C(C#N)=C(N)Oc3n[nH]c(C)c32)cc1 (centres unmarked)
Second: Cc1[nH][nH]c(=O)c1C=Nc1ccc(C(F)(F)F)cc1
The “hERG current change (%, negative = inhibition) at 1uM” value of the first is lower: 9.97% for the first, 15% for the second.

Compared with O=C(c1cncs1)N1CCCC(CNS(=O)(=O)c2cccs2)C1 (centres unmarked), O=C(NCC(=O)N(Cc1ccco1)C(C(=O)NC1CCCC1)c1ccncc1)c1cccs1 (centres unmarked) is higher in “hERG current change (%, negative = inhibition) at 1uM” value: 0.876% for the first, 17.6% for the second.

Compared with COc1ccc(-c2nnc(SCC(=O)N3CCOCC3)n2C)cc1OC, O=C(c1ccc2c3n(nc2c1)-c1ccc(Cl)cc1CO3)N1CCOCC1 is higher in “hERG current change (%, negative = inhibition) at 1uM” value: 2.91% for the first, 6.59% for the second.

First: O=C(N/N=C/c1cccnc1)c1cc(Br)ccc1O
Second: CCCc1cc(=O)[nH]c(Nc2ccc(O)cc2)n1
The “hERG current change (%, negative = inhibition) at 1uM” value of the first is higher: 19% for the first, 9.8% for the second.

First: COc1ccc(/C=N/Nc2nc(-c3ccc(Cl)cc3)cc(C(F)(F)F)n2)cc1OC
Second: CC(C)(C)N1C(=O)[C@H]2[C@@H](c3ccc(Br)cc3)N3C(=O)N(c4cccc(F)c4)C(=O)[C@@]3(C)[C@H]2C1=O
The “hERG current change (%, negative = inhibition) at 1uM” value of the first is higher: 12.9% for the first, 11.9% for the second.

Going from C#CCOCCOCCOCCNc1nc(N2CCOCC2)nc(N2CCN(C(=O)[C@H](CCC(=O)O)n3cc(C(N)Cc4ccc(O)cc4)nn3)CC2)n1.Cl (some centres unmarked) to O=C(Cn1ncc(N2CCCC2)c(Br)c1=O)c1ccc(Cl)cc1, the “hERG current change (%, negative = inhibition) at 1uM” value rises from -11.7% to -8.73%.

Going from O=C(O)CCCCCNCc1c(Cl)cccc1Cl to CCOC(=O)C1(CC2CCCCO2)CCN(C(=O)Nc2ccccc2)CC1 (centres unmarked), the “hERG current change (%, negative = inhibition) at 1uM” value rises from 13.4% to 16.9%.

Compared with Cc1nn(C(C)C(=O)NCC2CCCO2)c(=O)c2cc3occc3n12 (centres unmarked), Nc1ncnc(N2CCc3ccccc32)c1[N+](=O)[O-] is lower in “hERG current change (%, negative = inhibition) at 1uM” value: 9.59% for the first, 8.56% for the second.
